# According to article PMC4336329 (PLoS ONE, 2015):
# Out of some 310,000 compounds screened, about 14,000 (4.5%) showed an effect of 50% or more. Effects have a minus sign here. Some of the results follow.
# Target: human ether-à-go-go-related gene (hERG) potassium channel (human, UniProt Q12809)
# Assay: primary screen, population patch clamp on CHO cells stably expressing hERG
# 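Note: peak tail current of the secondary pulse compared with the same well before compound.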
# human ether-à-go-go-related gene (hERG) potassium channel, sequence (Q12809 whole entry, looked up): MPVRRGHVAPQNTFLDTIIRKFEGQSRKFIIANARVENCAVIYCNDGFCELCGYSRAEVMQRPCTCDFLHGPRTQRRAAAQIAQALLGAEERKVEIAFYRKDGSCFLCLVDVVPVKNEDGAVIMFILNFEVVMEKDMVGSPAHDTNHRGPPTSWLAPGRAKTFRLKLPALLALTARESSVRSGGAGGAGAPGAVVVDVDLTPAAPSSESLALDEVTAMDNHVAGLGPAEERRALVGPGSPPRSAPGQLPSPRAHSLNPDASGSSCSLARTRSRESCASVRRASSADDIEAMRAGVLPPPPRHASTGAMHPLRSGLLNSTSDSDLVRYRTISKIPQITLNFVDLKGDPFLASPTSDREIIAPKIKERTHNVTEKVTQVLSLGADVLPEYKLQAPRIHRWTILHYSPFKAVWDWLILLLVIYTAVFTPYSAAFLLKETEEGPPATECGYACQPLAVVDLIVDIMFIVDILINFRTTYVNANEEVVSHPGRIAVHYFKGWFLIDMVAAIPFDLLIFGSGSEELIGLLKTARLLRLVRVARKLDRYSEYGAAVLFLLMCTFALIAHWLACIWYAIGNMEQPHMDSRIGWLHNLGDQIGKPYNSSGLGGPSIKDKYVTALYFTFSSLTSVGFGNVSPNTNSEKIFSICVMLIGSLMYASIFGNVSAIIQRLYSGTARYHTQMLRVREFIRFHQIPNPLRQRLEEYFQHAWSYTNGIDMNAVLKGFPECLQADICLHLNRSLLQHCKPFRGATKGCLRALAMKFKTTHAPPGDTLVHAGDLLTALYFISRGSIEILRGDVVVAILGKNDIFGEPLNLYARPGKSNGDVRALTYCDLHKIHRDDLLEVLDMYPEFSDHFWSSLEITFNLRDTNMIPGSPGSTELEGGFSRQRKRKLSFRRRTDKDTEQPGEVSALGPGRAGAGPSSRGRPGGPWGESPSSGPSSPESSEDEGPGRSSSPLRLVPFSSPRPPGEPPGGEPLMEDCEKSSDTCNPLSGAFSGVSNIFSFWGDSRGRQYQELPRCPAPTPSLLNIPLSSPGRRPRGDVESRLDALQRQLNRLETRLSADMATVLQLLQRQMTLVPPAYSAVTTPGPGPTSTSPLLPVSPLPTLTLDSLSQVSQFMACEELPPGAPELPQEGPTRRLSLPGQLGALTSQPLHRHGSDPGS
row,Structure (SMILES),"hERG current change (%, negative = inhibition) at 10uM"
1,CCc1ccc(CCC(=O)Nc2ccc(C)cc2C)o1,-1.9%
2,COc1ccccc1C(=O)NCc1ccco1,9.61%
3,C=CCc1cc(C)ccc1OCCCn1ccnc1.O=C(O)C(=O)O,-6.54%
4,CCCN(CC(=O)Nc1ccccc1C)C(=O)c1cccc(S(=O)(=O)N2CCN(c3ccccc3)CC2)c1,-22%
5,CCCc1nnc(SCC(=O)Nc2ccc(OC)cc2)n1N,3.82%
6,CC(=O)c1cccc(NC2c3ccccc3C(=O)N2Cc2ccco2)c1 (centres unmarked),-13.2%
7,COC(=O)c1cc(=O)n(Cc2cccs2)c(=Nc2ccccc2)s1,-0.229%
8,CSc1ccccc1NC(=O)c1ccccc1N(C)S(C)(=O)=O,-14.1%
9,CCC1(C)Cc2c(sc3nnn(CC(=O)Nc4cccc5ccccc45)c(=O)c23)CO1 (centres unmarked),3.09%
10,CCc1ccc2c(CC(=O)Nc3nnc(C4CC4)s3)coc2c1.CN(C)C=O,2.39%
11,CCCCn1c(=N)c(S(=O)(=O)c2ccc(Br)cc2)cc2c(=O)n3cccc(C)c3nc21,13%
12,Cc1ccccc1C(=O)c1cccn1CC(=O)NCCCc1ccccc1,9.69%
13,COc1cscc1C(=O)O,-5.6%
14,O=C(CCc1nc2ccccc2s1)N1CCN(c2ccccc2)CC1,-29%
15,Cc1ccc(-c2nnc(COC(=O)c3ccco3)o2)cc1,4.77%
16,C=CCc1cccc2cc(C(=O)NC3CCCCC3)c(=O)oc12,0.33%
17,Cc1ccc(C2=[N+]([O-])C3(CCCCC3=O)N(O)C2(C)C)cc1 (centres unmarked),5.93%
18,COc1ccc(CCN(C)C(=O)C2CCN(Cc3ccccc3)CC2)cc1OC.O=C(O)C(=O)O,3.36%
19,O=C(COC(=O)c1ccccc1Oc1ccccc1)NC1CCS(=O)(=O)C1 (centres unmarked),-0.607%
20,CC(OC(=O)c1ccc(Cl)cc1)C(=O)NCc1ccc2c(c1)OCO2 (centres unmarked),-10.9%
21,NC(=O)c1ccc(NC(=O)CN2CCN(c3ccc(Cl)cc3)CC2)cc1,-51.3%
22,COc1cccc(-n2c(COc3ccccc3C)nnc2SCC(=O)O)c1,1.56%
23,Br.CC[N+](CC)(CC)C/C=C/CN1CCCCC1.[Br-],1.87%

row,Structure (SMILES),"hERG current change (%, negative = inhibition) at 10uM"
1,CCC(CC)NC(=O)COC(=O)c1ccc2c(c1)C(=O)N(Cc1ccco1)C2=O,20%
2,Cc1[nH][nH]c(=O)c1C(c1cc2c(cc1Br)OCO2)c1c(C)[nH][nH]c1=O,36.4%
3,CN(C)Cc1cccc([N+](=O)[O-])c1O,2.53%
4,Cc1ccc(NC(=O)C(=O)NCc2ccc(/C=C(/C#N)C(=O)NCc3cccnc3)o2)cc1C,-9.08%
5,COc1ccc(C(CNc2ccc(S(=O)(=O)N3CCCC3)cc2[N+](=O)[O-])N2CCCC2)cc1 (centres unmarked),-7.1%
6,CCCNC(=S)NC1CC2CCCC(C1)N2Cc1ccc(F)cc1 (centres unmarked),-60.6%
7,Cc1ccc(C(=O)OC2CCCN(C)C2)cc1.Cl (centres unmarked),-2.08%
8,Cc1cccc2sc(NC(=O)CSc3nnnn3C)nc12,-24.4%
9,O=C(O)c1cnn2c1C(=O)N(Cc1cccs1)CC2,16.5%
10,COCCn1nnnc1C(c1cccs1)N1CCCC(C)C1.Cl (centres unmarked),17.9%
11,Cc1ccc(S(=O)(=O)NC2CCCCCCC2)cc1,-0.211%
12,CC1(C)CC(=O)CC(=Nc2ccc3[nH]c(=O)[nH]c3c2)C1,-0.138%
13,Cc1c(CCOC(=O)c2cc([N+](=O)[O-])cc([N+](=O)[O-])c2)sc[n+]1CCCCS(=O)(=O)[O-],23.4%
14,CC1(C)C(=O)Nc2ccccc2N1C(=O)CSc1ncccn1,-45.9%
15,CCC(Sc1ccc2nnc(-c3ccc(F)cc3)n2n1)C(=O)OC (centres unmarked),-48.3%
16,C/C(CC(=O)Nc1cc(C)ccn1)=N\NC(=O)c1ccncc1,19.7%
17,COc1ccc(CCN2CCCC(CN(C)Cc3cc(Cl)c(O)c(OC)c3)C2)cc1 (centres unmarked),-65.7%
18,COc1ccc(OC)c(NS(=O)(=O)c2cc(OC)ccc2OC)c1,-2.14%
19,Cc1cc(C)c(C)c(S(=O)(=O)NCCN2CCOCC2)c1C,-9.48%
20,COc1ccc(NC(=O)C/C(C)=N/NC(=O)c2cnccn2)cc1,15.5%
21,COc1ccccc1NC(=O)c1ccc(NC(=O)COC(=O)C(C)C)cc1,4.37%
22,CCN(CC)C1CCCCC1NS(=O)(=O)c1ccc(Cl)cc1 (centres unmarked),-1.5%
23,C/C(=N\OC(=O)Nc1ccc(Cl)cc1)c1ccc(F)c(F)c1,5.54%

row,Structure (SMILES),"hERG current change (%, negative = inhibition) at 10uM"
1,O=C(NCCCN1CCCCC1)c1ccc(CS(=O)c2ccc(Cl)cc2)o1 (centres unmarked),-15.2%
2,C=CCNc1nc2ccccc2nc1NS(=O)(=O)c1cccc(C)c1,9.73%
3,CC(=O)CC(=O)NC1C2CC3CC(C2)CC1C3 (centres unmarked),24.8%
4,COc1ccc(OCc2cc(C(=O)N(C)Cc3cnccn3)no2)c(Cl)c1,-2.98%
5,COc1ccc(CCNC2=C(Cl)C(=O)N(Cc3ccccc3)C2=O)cc1OC,6.51%
6,Cc1ccc(C(=O)Nc2ccccc2C(=O)NCc2cccnc2)cc1,-7.23%
7,CCOC(=O)c1c(NC(=O)COC(=O)c2ccccn2)sc(C)c1C,2.02%
8,COc1cc(C(=O)Nc2ccc(C(C)=O)cc2)c(Br)c(OC)c1OC,14.6%
9,COCc1nnc(NC(=O)c2ccc3c(c2)OCO3)s1,19%
10,CC(c1ccccc1)C1CC(=O)N(C2CCCCC2)C1=O (centres unmarked),-13.3%
11,Cc1c(N(C)S(=O)(=O)c2cc(C(=O)N3CCCC3)ccc2Cl)c(=O)n(-c2ccccc2)n1C,2.81%
12,Cc1nc2ccccn2c1P(=S)(N1CCCCC1)N1CCCCC1,-44.1%
13,Cn1c(=O)n(C)c2cc([N+](=O)[O-])c(N3CCN(C(=O)c4ccccc4Cl)CC3)cc21,-34.4%
14,CN(C)CCNc1nc(-c2ccccc2)nnc1C(F)(F)F,-3.83%
15,CCOC(=O)c1c[nH]c2nc(C)ccc2c1=O,47.9%
16,CCOC1OC(=O)C(Cl)=C1Nc1ccc(C)cc1 (centres unmarked),1.26%
17,OCC[C@@H]1C[C@H](O)[C@@H](O)[C@]2(CCCO2)O1,21%
18,COc1ccc(CCC(=O)N(C)CC(=O)Nc2ccc(N3CCOCC3)cc2)cc1,-11%
19,C=CCOC(=O)COc1ccc2c(C)c(CC)c(=O)oc2c1,-3.99%
20,CCC(=O)Nc1nc2c(s1)COc1ccccc1-2,-3.76%
21,O=C(Cn1nc(-c2ccccc2)c2ccccc2c1=O)Nc1ccc2c(c1)nc1n2CCOC1,15.4%
22,COc1ccc(N(CC(=O)Nc2ccc(F)c(Cl)c2)S(=O)(=O)c2c(C)noc2C)cc1,-32.7%
23,Cc1ccc2c(-c3ccc([N+](=O)[O-])cc3)cc(=O)[nH]c2c1,-3.35%

row,Structure (SMILES),"hERG current change (%, negative = inhibition) at 10uM"
1,O=C(c1ccccc1O)N1N=C(C(F)(F)F)CC1(O)c1ccc([N+](=O)[O-])cc1 (centres unmarked),-23.4%
2,O=S(=O)(c1ccccc1Br)N1CCC(O)(c2cccnc2)CC1,-5.76%
3,CCN(Cc1ccccc1)C(=O)c1oc2ccc(S(=O)(=O)N3CCOCC3)cc2c1C,-6.06%
4,CCN(CC)CCN1C(=O)C(=O)/C(=C(/O)c2ccc(S(=O)(=O)N3CCOCC3)cc2)C1c1ccccc1 (centres unmarked),19%
5,O=[N+]([O-])c1cccnc1-n1cnc2ccccc21,16.3%
6,Cc1ccc(C(=O)c2ccc([N+](=O)[O-])cc2)c(C)c1,-8.77%
7,OCc1ccccc1N=c1ssnc1Cl,15.9%
8,Cc1ccc(C(O)(C(=O)NNc2ccc3ccccc3[nH+]2)c2ccc(C)cc2)cc1.[Cl-],12.9%
9,CCCc1ccc(-c2ccc(/C=C/C(=O)O)cc2)nc1,-3.67%
10,Cc1ccc(S(C)(=O)=O)cc1C(=O)Nc1cccc(S(=O)(=O)N2CCCCCC2)c1,-65.2%
11,CC(C)CC(=O)N(c1ccc(F)cc1)C1C=CS(=O)(=O)C1 (centres unmarked),14.4%
12,Cc1nnc(SCCn2c(N(C)Cc3ccccc3)nc3c2c(=O)[nH]c(=O)n3C)s1,-42.4%
13,COc1ccc(CNC(=O)COC(=O)C2CC3C=CC2C3)cc1 (centres unmarked),14.5%
14,CC(=NCCCn1ccnc1)c1c(O)n(-c2ccccc2)c(=O)[nH]c1=O,5.91%
15,C/C(=N\NC(=O)CN1CCOCC1)C(C)(C)C,19.7%
16,COc1ccccc1C1NC=C([N+](=O)[O-])C=C1[N+](=O)[O-] (centres unmarked),-6.17%
17,Cc1ccc(CCNC(=O)CCn2ccc3cc(S(=O)(=O)N4CCCC4)ccc32)cc1,-23.4%
18,CCN(CC)S(=O)(=O)c1ccc(N2CC(C(=O)NC3(C)CCS(=O)(=O)C3)CC2=O)cc1 (centres unmarked),24.4%
19,CC(=O)NNC(=O)CSc1nnc(-c2ccccc2)c(-c2ccccc2)n1,19.4%
20,COc1cc(Cl)c(NC2=CC(=O)C(=O)c3ccccc32)c(OC)c1,4.39%
